In the supplement of paper PMC8728848:
Some of the results follow.

Assays:
Assay in all cases: glycan array binding signal (z-score within array); higher = stronger binding
Conditions in all cases: glycan notation: IUPAC condensed, linker removed
[1] = target: Gal(b1-3)[Fuc(a1-4)]GlcNAc(b1-3)Gal(b1-4)GlcNAc
In short: (§1)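 The binding signal is a Z-score computed within each array and averaged over linkers. Arrays of the same protein sequence at different concentrations or buffers were also averaged together. Data originate from 3228 arrays in the Consortium for Functional Glycomics database, kept only where the protein sequence was available.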

[2] = target: Gal(b1-3)[Fuc(a1-4)]GlcNAc(b1-3)Gal(b1-4)[Fuc(a1-3)]GlcNAc
In short: as §1

[3] = target: Gal(b1-3)[GlcNAc(b1-6)]GalNAc
In short: as §1

[4] = target: Gal(b1-3)[Neu5Ac(a2-6)]GalNAc
In short: as §1

[5] = target: Gal(b1-3)[Neu5Ac(a2-6)]GlcNAc(b1-6)Gal(b1-4)Glc
In short: as §1

[6] = target: Gal(b1-3)[Neu5Ac(b2-6)]GalNAc
In short: as §1

Gal(b1-4)Gal = target: Gal(b1-4)Gal
In short: as §1

[7] = target: Gal(b1-4)GalNAc(a1-3)[Fuc(a1-2)]Gal(b1-4)GlcNAc
In short: as §1

[8] = target: Gal(b1-4)GalNAc(b1-3)[Fuc(a1-2)]Gal(b1-4)GlcNAc
In short: as §1

Gal(b1-4)Glc = target: Gal(b1-4)Glc
In short: as §1

Gal(b1-4)Glc6S = target: Gal(b1-4)Glc6S
In short: as §1

Gal(b1-4)GlcNAc = target: Gal(b1-4)GlcNAc
In short: as §1

[9] = target: Gal(b1-4)GlcNAc(a1-6)Gal(b1-4)GlcNAc
In short: as §1

[10] = target: Gal(b1-4)GlcNAc(b1-2)Man(a1-3)Man(b1-4)GlcNAc(b1-4)GlcNAc
In short: as §1

[11] = target: Gal(b1-4)GlcNAc(b1-2)Man(a1-3)[Gal(b1-4)GlcNAc(b1-2)Man(a1-6)]Man(b1-4)GlcNAc(b1-4)GlcNAc
In short: as §1

[12] = target: Gal(b1-4)GlcNAc(b1-2)Man(a1-3)[Gal(b1-4)GlcNAc(b1-2)Man(a1-6)]Man(b1-4)GlcNAc(b1-4)[Fuc(a1-6)]GlcNAc
In short: as §1

[13] = target: Gal(b1-4)GlcNAc(b1-2)Man(a1-3)[Gal(b1-4)GlcNAc(b1-2)][GlcNAc(b1-4)]Man(b1-4)GlcNAc(b1-4)GlcNAc
In short: as §1

[14] = target: Gal(b1-4)GlcNAc(b1-2)Man(a1-3)[GlcNAc(b1-2)Man(a1-6)]Man(b1-4)GlcNAc(b1-4)GlcNAc
In short: as §1

[15] = target: Gal(b1-4)GlcNAc(b1-2)Man(a1-3)[Man(a1-6)]Man(b1-4)GlcNAc(b1-4)GlcNAc
In short: as §1

[16] = target: Gal(b1-4)GlcNAc(b1-2)Man(a1-6)Man(b1-4)GlcNAc(b1-4)GlcNAc
In short: as §1

[17] = target: Gal(b1-4)GlcNAc(b1-2)Man(a1-6)[GlcNAc(b1-2)Man(a1-3)]Man(b1-4)GlcNAc(b1-4)GlcNAc
In short: as §1

[18] = target: Gal(b1-4)GlcNAc(b1-2)Man(a1-6)[Man(a1-3)]Man(b1-4)GlcNAc(b1-4)GlcNAc
In short: as §1

[19] = target: Gal(b1-4)GlcNAc(b1-2)[Gal(b1-4)GlcNAc(b1-4)]Man(a1-3)[Gal(b1-4)GlcNAc(b1-2)Man(a1-6)]Man(b1-4)GlcNAc(b1-4)GlcNAc
In short: as §1

[20] = target: Gal(b1-4)GlcNAc(b1-2)[Gal(b1-4)GlcNAc(b1-4)]Man(a1-3)[Gal(b1-4)GlcNAc(b1-2)[Gal(b1-4)GlcNAc(b1-6)]Man(a1-6)]Man(b1-4)GlcNAc(b1-4)GlcNAc
In short: as §1

[21] = target: Gal(b1-4)GlcNAc(b1-2)[Gal(b1-4)GlcNAc(b1-4)]Man(a1-3)[GlcNAc(b1-4)][Gal(b1-4)GlcNAc(b1-2)Man(a1-6)]Man(b1-4)GlcNAc(b1-4)GlcNAc
In short: as §1

[22] = target: Gal(b1-4)GlcNAc(b1-2)[Gal(b1-4)GlcNAc(b1-6)]Man(a1-6)[GlcNAc(b1-4)][Gal(b1-4)GlcNAc(b1-2)Man(a1-3)]Man(b1-4)GlcNAc(b1-4)GlcNAc
In short: as §1

[23] = target: Gal(b1-4)GlcNAc(b1-3)Gal(b1-3)GlcNAc
In short: as §1

[24] = target: Gal(b1-4)GlcNAc(b1-3)Gal(b1-4)Glc
In short: as §1

[25] = target: Gal(b1-4)GlcNAc(b1-3)Gal(b1-4)GlcNAc
In short: as §1

[26] = target: Gal(b1-4)GlcNAc(b1-3)Gal(b1-4)GlcNAc(b1-3)Gal(b1-4)GlcNAc
In short: as §1

[27] = target: Gal(b1-4)GlcNAc(b1-3)Gal(b1-4)[Fuc(a1-3)GlcNAc(b1-6)]Gal(b1-4)Glc
In short: as §1

[28] = target: Gal(b1-4)GlcNAc(b1-3)Gal(b1-4)[Fuc(a1-3)]GlcNAc(b1-3)Gal(b1-4)[Fuc(a1-3)]GlcNAc
In short: as §1

[29] = target: Gal(b1-4)GlcNAc(b1-3)GalNAc
In short: as §1

[30] = target: Gal(b1-4)GlcNAc(b1-3)[Gal(b1-4)GlcNAc(b1-6)]Gal(b1-4)GlcNAc
In short: as §1

[31] = target: Gal(b1-4)GlcNAc(b1-3)[Gal(b1-4)GlcNAc(b1-6)]GalNAc
In short: as §1

[32] = target: Gal(b1-4)GlcNAc(b1-3)[GlcNAc(b1-6)]Gal(b1-4)GlcNAc
In short: as §1

[33] = target: Gal(b1-4)GlcNAc(b1-6)Gal(b1-4)GlcNAc
In short: as §1

[34] = target: Gal(b1-4)GlcNAc(b1-6)GalNAc
In short: as §1

B1: SEX4 (Arabidopsis thaliana), Q944A8 (protein)
chain: TQAMGAVLTYRHELGMNYNFIRPDLIVGSCLQTPEDVDKLRKIGVKTIFCLQQDPDLEYFGVDISSIQAYAKKYSDIQHIRCEIRDFDAFDLRMRLPAVVGTLYKAVKRNGGVTYVHCTAGMGRAPAVALTYMFWVQGYKLMEAHKLLMSKRSCFPKLDAIRNATIDILTGLKRKTVTLTLKDKGFSRVEISGLDIGWGQRIPLTLGKGTGFWILKRELPEGQFEYKYIIDGEWTHNEAEPFIGPNKDGHTNNYAKVVDDPTSVDGTTRERLSSEDPELLEEERSKLIQFLETCSEAEV
glycan array binding signal (z-score) [1]: 0.013
glycan array binding signal (z-score) [2]: -0.367
glycan array binding signal (z-score) [3]: -0.444
glycan array binding signal (z-score) [4]: -0.273
glycan array binding signal (z-score) [5]: 0.064
glycan array binding signal (z-score) [6]: 0.139
glycan array binding signal (z-score) (Gal(b1-4)Gal): -0.4
glycan array binding signal (z-score) [7]: -0.464
glycan array binding signal (z-score) [8]: -0.409
glycan array binding signal (z-score) (Gal(b1-4)Glc): -0.395
glycan array binding signal (z-score) (Gal(b1-4)Glc6S): 0.104
glycan array binding signal (z-score) (Gal(b1-4)GlcNAc): -0.406
glycan array binding signal (z-score) [9]: -0.119
glycan array binding signal (z-score) [10]: 0.202
glycan array binding signal (z-score) [11]: -0.197
glycan array binding signal (z-score) [12]: 0.172
glycan array binding signal (z-score) [13]: 0.393
glycan array binding signal (z-score) [14]: 1.91
glycan array binding signal (z-score) [15]: 0.063
glycan array binding signal (z-score) [16]: 1.74
glycan array binding signal (z-score) [17]: 0.253
glycan array binding signal (z-score) [18]: 0.194
glycan array binding signal (z-score) [19]: -0.206
glycan array binding signal (z-score) [20]: -0.426
glycan array binding signal (z-score) [21]: 1.23
glycan array binding signal (z-score) [22]: 0.037
glycan array binding signal (z-score) [23]: -0.483
glycan array binding signal (z-score) [24]: 0.372
glycan array binding signal (z-score) [25]: -0.268
glycan array binding signal (z-score) [26]: -0.022
glycan array binding signal (z-score) [27]: -0.404
glycan array binding signal (z-score) [28]: -0.35
glycan array binding signal (z-score) [29]: -0.46
glycan array binding signal (z-score) [30]: 0.346
glycan array binding signal (z-score) [31]: 0.324
glycan array binding signal (z-score) [32]: -0.354
glycan array binding signal (z-score) [33]: -0.195
glycan array binding signal (z-score) [34]: -0.548
